According to PubChem BioAssay AID686970 (National Center for Advancing Translational Sciences (NCATS), 2013):
Screen size: about 360,000 compounds; about 6,000 (1.7%) were called active. The shares of active, inactive and inconclusive entries below differ from those in the screen. Calls come from the whole dose curve; as a rule, active = well fitted cell-killing curve with a large enough effect; inconclusive = small, poorly fitted or top-dose-only effect, or effect the other way; inactive = flat fitted curve, though single readings scatter. Potencies of inconclusive entries are left out as doubtful fits.

Assay: qHTS for induction of synthetic lethality in tumor cells producing 2HG: qHTS for the HT-1080-NT fibrosarcoma cell line;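 note: NT is the 2HG producing partner of a matched IDH1 knockdown line; nearly all actives have a fitted effect of over 55% in size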;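 for activity, negative = less viability: 0% = DMSO-treated cells and -100% = media-only wells without cells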
Details: HT-1080-NT fibrosarcoma viability, CellTiter-Glo ATP luminescence, 48 h; activity, negative = less viability: at 46.1 µM (top of the series) unless noted
Outline: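 Toxicity toward the 2HG-producing NT line was scored as %Activity, normalised to DMSO and no-cell wells, from CellTiter-Glo luminescence after 48 hours' treatment.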
Potency is the fitted concentration of half-maximal effect; tags give direction and shape of the fitted curve.

Row | SMILES | Potency | activity, negative = less viability
1 | Cc1ccc(NS(=O)(=O)c2sc3ccc(Cl)cc3c2C)cc1 | inconclusive [cytotoxic, single point] | –
2 | O=C(CSc1ccc2ccccc2c1Br)Nc1cccc(S(=O)(=O)NC2=NCCCCC2)c1 | active: 18.4 µM | –
3 | O=C(c1cnn2c1NC(c1ccc(Br)cc1)CC2C(F)(F)F)N1CCN2CCCC2C1 (configuration not stated) | inconclusive [cytotoxic, single point] | –
4 | Cc1ccc(S(=O)(=O)Oc2ccccc2-c2ccccc2)cc1 | – | inconclusive: -21.7% [cytotoxic]
5 | COc1ccc(OC)c(-n2nnnc2SCC(=O)Nc2nc(C)c(C)s2)c1 | inconclusive [cytotoxic, single point] | –
6 | CC(=O)NC(c1ccco1)c1ccc2cccnc2c1O (configuration not stated) | inconclusive [cytotoxic, partial curve] | –
7 | CCc1noc(C)c1C(=O)Nc1ccc(-c2nnc3n2CCCCC3)cc1 | inactive | –
8 | O=[N+]([O-])c1cc([N+](=O)[O-])c2cc3ccccc3nc2c1 | active: 16.4 µM | –
9 | CN(C)c1ccc(N/C=C/C(=O)C(C)(C)C)cc1 | inactive | –
10 | CCc1nc2ccc(C(=O)Nc3cccc(OCC(=O)N(C)C)c3)cn2c1N(C=O)Cc1ccc(OC)cc1 | inconclusive [rising, partial curve] | –
11 | O=C(/C=C/c1ccc(Cl)cc1)c1ccc([N+](=O)[O-])o1 | inconclusive [cytotoxic, partial curve] | –
12 | Clc1cccc(Cc2c(-c3ccco3)nc3ccc(Br)cn23)c1 | inconclusive [cytotoxic, single point] | –
13 | O=C(c1ccccc1F)n1c2c(c3ccccc31)CCCC2 | inconclusive [cytotoxic, partial curve] | –
14 | COc1ccc(CN([C@H](CO)CC(C)C)S(=O)(=O)N(Cc2ccccc2)[C@H](CO)CC(C)C)cc1 | active: 16.4 µM | –
15 | COc1ccc(CN(CCCN)c2ccc(Br)cn2)cc1 | inconclusive [cytotoxic, single point] | –
16 | Cc1cc(C(=O)COc2cccnc2[N+](=O)[O-])c(C)n1Cc1cccs1 | inconclusive [cytotoxic, single point] | –
17 | CC1CCN(Cc2c(C(=O)N/N=C/c3cc(Br)ccc3O)nnn2-c2nonc2N)CC1 | active: 3.66 µM | –
18 | COc1ccc(-c2nc(CN3CCCC(C(=O)NC4CCCC4)C3)c(C)o2)cc1 (configuration not stated) | inactive | –
19 | CCOC(=O)C1=C(COc2ccccc2)NC(=O)NC1c1ccc2ccccc2c1 (configuration not stated) | inconclusive [cytotoxic, single point] | –
20 | COc1ccc(-c2coc3c(C(=O)NCCN(C)C)cccc23)c(C)c1 | active: 25.9 µM | –
21 | Cc1nc([N+](=O)[O-])c(Br)n1CC(=O)c1ccc(Br)cc1 | active: 20.6 µM | –
22 | CC(C)=N/N=C1/NC(=O)C(c2ccccc2)S1 (configuration not stated) | inactive | –
23 | COc1ccc(OC(=O)N(C)C[C@@H]2OCc3cn(nn3)CCCC(=O)N([C@@H](C)CO)C[C@H]2C)cc1 | inactive | –

Row | SMILES | Potency | activity, negative = less viability
24 | CCOC(=O)/C(=N/Nc1ccc(C)cc1)S(=O)(=O)c1ccc(Cl)cc1 | inconclusive [cytotoxic, partial curve] | –
25 | COC(=O)c1cc(NC(=O)Cc2ccc(OC)c(OC)c2)cc(C(=O)OC)c1 | inactive | –
26 | COc1cnc(-c2ccccn2)nc1Sc1ccc(F)cc1 | active: 20.6 µM | –
27 | COc1cc(/C=N\Nc2nc3ccccc3o2)cc(OC)c1OC | inconclusive [cytotoxic, single point] | –
28 | CCOC(=O)c1c(-c2ccccc2)csc1NC(=O)CSc1nnnn1C | inconclusive [cytotoxic, single point] | –
29 | Cc1cc(NC(=O)CS(=O)(=O)c2cn(Cc3cccc(Cl)c3)c3ccccc23)no1 | inconclusive [cytotoxic, partial curve] | –
30 | CC(=O)Nc1cc(-c2ccccc2N(C)C)cn2c(-c3cccc(C(F)(F)F)c3)cnc12 | inconclusive [cytotoxic, single point] | –
31 | C/C(=N\NC(=O)c1cc(-c2cccnc2)nc2ccccc12)c1ccc(O)cc1O | inconclusive [cytotoxic, full curve] | –
32 | COc1ccc(/C=C\C(=O)c2c(O)ccc3c(C)cc(=O)oc23)cc1 | inconclusive [cytotoxic, single point] | –
33 | CCOc1ccc2nc(/N=C/c3c(C)[nH]n(-c4ccccc4)c3=O)sc2c1 | inactive | –
34 | CCn1ncc(C2=NOC(C(=O)NCc3ccc(Cl)cc3)C2)c1C (configuration not stated) | active: 4.47 µM | –
35 | c1csc(CNc2ccn3nc(-c4ccc(OCCN5CCOCC5)cc4)cc3n2)c1 | inconclusive [cytotoxic, single point] | –
36 | CC(Oc1ccc(C#N)cc1)C(=O)N1CC=C(c2ccccc2)CC1 (configuration not stated) | inconclusive [cytotoxic, single point] | –
37 | COC(=O)c1ccc(COC(=O)CNC(=O)CNC(=O)c2ccc(C)cc2)cc1 | inactive | –
38 | COc1cccc(/C=N/NC(=O)c2c(C)nc3ccc(Cl)cn23)c1OC | inactive | –
39 | COc1ccc(-c2cnc3c(NC=O)cc(-c4cc(OC)c(OC)c(OC)c4)cn23)cc1OC | inconclusive [cytotoxic, single point] | –
40 | C=C1C(=O)OC2C1CCC(C)C1C=CC(=O)C12C (configuration not stated) | inconclusive [cytotoxic, single point] | –
41 | CCc1ccc(N=Nc2ccc(O)c3[nH]cnc23)cc1 | inconclusive [cytotoxic, single point] | –
42 | CC[C@H](C)C1OC(=O)[C@@H](C)[C@@H](CC)NC(=O)[C@H](C)N(C)C(=O)C(C)(C)C(=O)C(C)NC(=O)[C@H](Cc2ccc(OC)cc2)N(C)C(=O)[C@H](C(C)C)N(C)C(=O)CNC(=O)[C@H](CC(C)C)N(C)C(=O)CNC1=O (some centres not stated) | active: 0.259 µM | –
43 | COC(=O)C1CCN(C2=C(NS(=O)(=O)c3ccc(Cl)cc3)C(=O)c3ccccc3C2=O)CC1 | inconclusive [cytotoxic, single point] | –
44 | CCc1nnc(NC(=O)c2ccc(S(=O)(=O)N3CCCCCC3)cc2)s1 | – | inconclusive: -9.79% [cytotoxic]
45 | CCN(CC)S(=O)(=O)c1cc(C(=O)Nc2nncs2)c(Cl)cc1Cl | inconclusive [cytotoxic, single point] | –
46 | COc1ccc(/C=N\NC(=O)C2COc3ccccc3O2)cc1O (configuration not stated) | active: 14.6 µM | –

Row | SMILES | Potency | activity, negative = less viability
47 | CCCS(=O)(=O)N1CCCC(C(=O)NC(C)c2ccc3c(c2)OCCO3)C1 (configuration not stated) | inactive | –
48 | Cc1nc2ccccc2n1/N=C/c1ccc([N+](=O)[O-])o1 | active: 12.6 µM | –
49 | COc1cccc(C(O)c2ncc(-c3cccc(C(F)(F)F)c3)[nH]2)c1 (configuration not stated) | inconclusive [cytotoxic, single point] | –
50 | CC(=O)N1Cc2cc(C(=O)NCc3cccc(F)c3)nc(-c3cccc(C4=CCCC4)c3)c2[C@H]1CCO | inconclusive [cytotoxic, partial curve] | –
51 | COC(=O)c1cc(NC(=S)NCc2ccc(Cl)cc2)cc(C(=O)OC)c1 | inconclusive [cytotoxic, single point] | –
52 | CC1CCN(S(=O)(=O)c2cccc3cccnc23)CC1 | inactive | –
53 | O=C(c1cccc(F)c1)N1CCN(c2cccc(Cl)c2)CC1 | inconclusive [cytotoxic, partial curve] | –
54 | O=c1c2c3nc4ccccc4nc3n(/N=C/c3ccccn3)c2ncn1-c1ccccc1 | active: 5.8 µM | –
55 | COc1ccc(C(=O)NCC(c2ccco2)N2CCc3ccccc3C2)c(OC)c1 (configuration not stated) | inactive | –
56 | O=C(CNc1ccc2ccccc2c1)N/N=C/C=C/c1cccc([N+](=O)[O-])c1 | inconclusive [cytotoxic, single point] | –
57 | CCc1ccc(NC(=O)C2CCC(CNC(=O)[C@@H]3Cc4ccccc4CN3)CC2)cc1 (some centres not stated) | inconclusive [cytotoxic, partial curve] | –
58 | O=c1cc(CN2CCN(Cc3ccc(F)cc3)C(CCO)C2)[nH]c2ccccc12 (configuration not stated) | inactive | –
59 | COc1ccc(C(C[N+](=O)[O-])c2c(-c3ccccc3)cc3ccccn23)c(OC)c1 (configuration not stated) | inconclusive [cytotoxic, partial curve] | –
60 | O=C(Nc1ccc(-c2csc(-c3ccccc3)n2)cc1)c1ccccc1 | inconclusive [cytotoxic, single point] | –
61 | CCN1CCN(CCNC(=O)c2cc(Cl)c(NC(=O)C3=C(C)OCCS3)cc2OC)CC1 | inconclusive [cytotoxic, single point] | –
62 | COC(=O)c1ccc(NC(=O)C(=O)c2cccn2C)cc1 | inconclusive [cytotoxic, single point] | –
63 | CCCOc1ccccc1/C=C(\C#N)C(=O)Nc1cccnc1 | inconclusive [rising, single point] | –
64 | Cc1ccc2c(c1)nnn2C1CCN(S(=O)(=O)c2ccc3ccccc3c2)CC1 | inconclusive [cytotoxic, single point] | –
65 | CC(C)C[C@H]1CN([C@@H](CC(C)C)CN2CCC[C@@H]2CN2C(=S)NC[C@@H]2Cc2ccc(O)cc2)C(=S)N1CCc1ccccc1 | inconclusive [cytotoxic, single point] | –
66 | CCCc1cc(=O)[nH]c(SCC(=O)c2c(N)n(C)c(=O)n(C)c2=O)n1 | inconclusive [cytotoxic, single point] | –
67 | Oc1ccc(-c2ccccc2)cc1CN1CCCCCC1 | inconclusive [cytotoxic, single point] | –
